This sample is rich in variants without activity.
B1: TPR 5TU (parent)
chain: GGAUCUUCUCGAUCUAACAAAAAAGACAAAUCUGCCACAAAGCUUGAGAGCAUCUUCGGAUGCAGAGGCGGCAGCCUUCGGUGGCGCGAUAGCGCCAACGUUCUCAACUAUGACACGCAAAACGCGUGCUCCGUUGAAUGGAGUUUAUCAUG

Variants of: B1
Experiment: polymerase ribozyme fitness, log enrichment relative to wild type (log ratio); higher = more active; in vitro selection for triplet polymerase activity
Method in brief: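 PCR was used to build mutant libraries for each subunit of a heterodimeric triplet polymerase ribozyme, which were then transcribed. A single in vitro selection round, in triplicate, used a frozen incubation at −7 °C and recovered extended constructs by gel excision, streptavidin beads and RT-PCR. Fitness is the logarithm of genotype enrichment relative to wild-type enrichment, averaged over replicates with inverse-variance weights. The logarithm is base 2, and after Illumina sequencing only genotypes with ≥10 input reads and ≥1 read per output were kept.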

Variant	polymerase ribozyme fitness (log ratio)
U7A C10A C75A G88U G94U C95U G140U A142C	≤ -4.2
U6G A17G C32U A41U C54U G74C C85A	≤ -4.2
U6C U9C C36U G48C C51G	≤ -4.2
U6G G34U C96A U104G U135A	≤ -4.2
U7A A21C U53G U56A G58C A60U C75A	≤ -4.2
U7A A26U C32G A49C G50A G83U	≤ -4.2
U7C G48U G84A G117C	≤ -4.2
U6G U7C A16C A17U C32U U45G U61A C63G A64U	≤ -4.2
U6C U13A G25C A49C U55C G58A C95U	≤ -4.2
U7G C10U C35U A64G C96A C129A	≤ -4.2
U6G G11A	-0.786
U6G C14U C51A A52G U56A A60U C93G A97G U145A	≤ -4.2
U7A A16C C32G A37U C51U A52U U56A C85A	≤ -4.2
U6G A28U U44A C96G	≤ -4.2
U7A G11C C87A G124U G141A U148G	≤ -4.2
U6G G11C C14U C93A	≤ -4.2
U7A A16U C51U A66G C96A C99U	≤ -4.2
U7A A24G A30G G42U U56C G58A G59C C87G A121U	≤ -4.2
U7C C38U A47C U82G G83C C105G U127G C132G	≤ -4.2
U7A A37U U61G U78G C99G G140A	≤ -4.2
U6G U13C G59A U78G G84U A120G G124U	≤ -4.2

Variant	polymerase ribozyme fitness (log ratio)
U7A A23G U33A C57U G58A G59A C76U G94U A142U	≤ -4.2
U6G C79A C93G C105U U135A A138G	≤ -4.2
U7G A16U A28C G62C G86U C95U A110U	≤ -4.2
U6G A16U A17G C36A C63A U101A G128C	≤ -4.2
U6G A49C U55C	≤ -4.2
U7A C36U C95G	≤ -4.2
U7A A19G G141C A150G	≤ -4.2
U7A G94A C103G A150C	≤ -4.2
U6C U7G G59U G68C U82C G136U	≤ -4.2
U7C U53G C93G C116G G124U G141A U148G	≤ -4.2
U7A A17U A23U U31G G80C C95U	≤ -4.2
U6G G34C A91U	≤ -4.2
U7C A23U C87A A89G A115U U134A	≤ -4.2
U6G A12C C18U G25C C38U A52C U53A A64G C69G C96G C118A C132A	≤ -4.2
U7A U44A G67C C69G U82G C93U C114G G141C	≤ -4.2
U7A A29G G67A C69U G80C C103G U104C C105U G136A G140U	≤ -4.2
U7G A28U A41U C57A C87G	≤ -4.2
U6G A26C G86C C87U C123G	≤ -4.2
U7A C8U C18G A26U C54U A60G C95U	≤ -4.2
U6G C27A A30C G74A C95G C103A C132G	≤ -4.2
U7C C54U C85G A115C	≤ -4.2

Variant	polymerase ribozyme fitness (log ratio)
U6G A30G A40C C57G C75A C95U G136A	≤ -4.2
U7A G42C C54U G70C C93U	≤ -4.2
U7A A40U A47G G92C G141U	≤ -4.2
U7G A22G G74U C85A G126U	≤ -4.2
U7C G11A G42A G46C C51G G68A C87U G88A G133C	≤ -4.2
U7G A22U C43U C93A A142G	≤ -4.2
U7C G11A C27G A47G C63U C93A A110C	≤ -4.2
U6G C14U U44A A47C C69A	≤ -4.2
U7G A49C C51A C57G G83A A106G A107C C118U C123G C129G A150G	≤ -4.2
U6G A16U C18U G67C G88C	≤ -4.2
U7C U45A G46A C57G A66G C85A	≤ -4.2
U7A A12C A24G A47U U90A C114U G126U	≤ -4.2
U7A A24C A47C A52C G58A G67A A98U C99G U102A G136C A138C A147C	≤ -4.2
U6C U31C A52U G58A C95G U145A	-2.9
U7G A64U G84A G86U A110C A138G C149U	≤ -4.2
U7G C8G G71C U82C G86U C87U G112A A115C	≤ -4.2
U6G A30C	≤ -4.2
U7A U102A U109G G117A	≤ -4.2
U6C U53A G59A G83A U90G C118U C131U A137G A138C	≤ -4.2
U7C A20C A28C	≤ -4.2
U7A A17U C35A A41G G88C G141U G143C	≤ -4.2

Variant	polymerase ribozyme fitness (log ratio)
U7A G25C A26U C69A U77A C103A G143C	≤ -4.2
U7C A49G A52G G81A G84U	≤ -4.2
U7G A17U C51U G58C C75A C85G A115U	≤ -4.2
U6G C27G U61A G88U	≤ -4.2
U7C C8A A17G G83C A106G U139C	≤ -4.2
U7A C32U U61A G74U C99G	≤ -4.2
U7C U53G G86C A106G A150C	≤ -4.2
U6G C38A G59A C87G A91G	≤ -4.2
U7G A23G G67U	≤ -4.2
U7A G84C C132U U135C U146G	≤ -4.2
U6G G59U C87U C114A G140C	≤ -4.2
U6G A39U C54A U55A A115G A150U	≤ -4.2
U7G A39C C85G U111G A119G C123A	≤ -4.2
U7G A30G A91C	≤ -4.2
U6G U9G A16G A49G U135C	≤ -4.2
U6G A16U A22U A23C C93G A119C	≤ -4.2
U6G A16U A20U C54G A66G	≤ -4.2
U6G U45A C57U G67C C95G C99U	≤ -4.2
U7C C10G A26U G34U G84A A142U	≤ -4.2
U7A A19G C76G G86C A147C	≤ -4.2

— the RNAGym collection of RNA variant scans (doi:10.1073/pnas.2313332121)
